# Measured values taken from the supplement of paper PMC8728848.
# The other results are listed elsewhere or left out.
# B1: DC-ASGPR-short (Homo sapiens) (protein)
# chain: MTRTYENFQYLENKVKVQGFKNGPLPLQSLLQRLRSGPCHLLLSLGLGLLLLVIICVVGFQNSKFQRDLVTLRTDFSNFTSNTVAEIQALTSQGSSLEETIASLKAEVEGFKQERQAVHSEMLLRVQQLVQDLKKLTCQVATLNNNASTEGTCCPVNWVEHQDSCYWFSHSGMSWAEAEKYCQLKNAHLVVINSREEQNFVQKYLGSAYTWMGLSDPEGAWKWVDGTDYATGFQNWKPGQPDDWQGHGLGGGEDCAHFHPDGRWNDDVCQRPYHWVCEAGLGQTSQESH
# What was measured:
# Assay in all cases: glycan array binding signal (z-score within array); higher = stronger binding
# Settings in all cases: glycan notation: IUPAC condensed, linker removed
# [1] = molecular target: Fuc(a1-2)[Gal(a1-3)]Gal(b1-4)[Fuc(a1-3)]GlcNAc(b1-3)GalNAc
# How it was run: (§1)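 Columns mapping to the same glycan were averaged after glycan names were converted to IUPAC-condensed notation. The data come from 3228 arrays in the Consortium for Functional Glycomics database, limited to those with an available protein sequence. Binding is reported as a within-array Z-score averaged across arrays of one protein sequence and across linkers.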
# [2] = molecular target: Fuc(a1-2)[Gal(a1-4)]Gal(b1-4)GlcNAc
# How it was run: as §1
# [3] = molecular target: Fuc(a1-2)[GalNAc(a1-3)]Gal
# How it was run: as §1
# [4] = molecular target: Fuc(a1-2)[GalNAc(a1-3)]Gal(b1-3)GalNAc(a1-3)[Fuc(a1-2)]Gal(b1-4)GlcNAc
# How it was run: as §1
# [5] = molecular target: Fuc(a1-2)[GalNAc(a1-3)]Gal(b1-3)GalNAc(b1-3)Gal(a1-4)Gal(b1-4)Glc
# How it was run: as §1
# [6] = molecular target: Fuc(a1-2)[GalNAc(a1-3)]Gal(b1-3)GlcNAc
# How it was run: as §1
# [7] = molecular target: Fuc(a1-2)[GalNAc(a1-3)]Gal(b1-3)GlcNAc(b1-2)Man(a1-3)[Fuc(a1-2)[GalNAc(a1-3)]Gal(b1-3)GlcNAc(b1-2)Man(a1-6)]Man(b1-4)GlcNAc(b1-4)GlcNAc
# How it was run: as §1
# [8] = molecular target: Fuc(a1-2)[GalNAc(a1-3)]Gal(b1-3)GlcNAc(b1-2)Man(a1-3)[Fuc(a1-2)[GalNAc(a1-3)]Gal(b1-3)GlcNAc(b1-2)Man(a1-6)]Man(b1-4)GlcNAc(b1-4)[Fuc(a1-6)]GlcNAc
# How it was run: as §1
# [9] = molecular target: Fuc(a1-2)[GalNAc(a1-3)]Gal(b1-3)GlcNAc(b1-3)GalNAc
# How it was run: as §1
# [10] = molecular target: Fuc(a1-2)[GalNAc(a1-3)]Gal(b1-3)GlcNAc(b1-6)GalNAc
# How it was run: as §1
# [11] = molecular target: Fuc(a1-2)[GalNAc(a1-3)]Gal(b1-4)Glc
# How it was run: as §1
# [12] = molecular target: Fuc(a1-2)[GalNAc(a1-3)]Gal(b1-4)GlcNAc
# How it was run: as §1
# [13] = molecular target: Fuc(a1-2)[GalNAc(a1-3)]Gal(b1-4)GlcNAc(b1-2)Man
# How it was run: as §1
# [14] = molecular target: Fuc(a1-2)[GalNAc(a1-3)]Gal(b1-4)GlcNAc(b1-2)Man(a1-3)[Fuc(a1-2)[GalNAc(a1-3)]Gal(b1-4)GlcNAc(b1-2)Man(a1-6)]Man(b1-4)GlcNAc(b1-4)GlcNAc
# How it was run: as §1
# [15] = molecular target: Fuc(a1-2)[GalNAc(a1-3)]Gal(b1-4)GlcNAc(b1-2)Man(a1-3)[Fuc(a1-2)[GalNAc(a1-3)]Gal(b1-4)GlcNAc(b1-2)Man(a1-6)]Man(b1-4)GlcNAc(b1-4)[Fuc(a1-6)]GlcNAc
# How it was run: as §1
# [16] = molecular target: Fuc(a1-2)[GalNAc(a1-3)]Gal(b1-4)GlcNAc(b1-3)Gal(b1-4)GlcNAc
# How it was run: as §1
# [17] = molecular target: Fuc(a1-2)[GalNAc(a1-3)]Gal(b1-4)GlcNAc(b1-3)Gal(b1-4)GlcNAc(b1-3)Gal(b1-4)GlcNAc
# How it was run: as §1
# [18] = molecular target: Fuc(a1-2)[GalNAc(a1-3)]Gal(b1-4)GlcNAc(b1-3)GalNAc
# How it was run: as §1
# [19] = molecular target: Fuc(a1-2)[GalNAc(a1-3)]Gal(b1-4)GlcNAc(b1-3)[Fuc(a1-2)[GalNAc(a1-3)]Gal(b1-4)GlcNAc(b1-6)]GalNAc
# How it was run: as §1
# [20] = molecular target: Fuc(a1-2)[GalNAc(a1-3)]Gal(b1-4)GlcNAc(b1-6)GalNAc
# How it was run: as §1
# [21] = molecular target: Fuc(a1-2)[GalNAc(a1-3)]Gal(b1-4)[Fuc(a1-3)]GlcNAc
# How it was run: as §1
# [22] = molecular target: Fuc(a1-2)[GalNAc(a1-3)]Gal(b1-4)[Fuc(a1-3)]GlcNAc(b1-3)GalNAc
# How it was run: as §1
# [23] = molecular target: Fuc(a1-2)[GalNAc(a1-4)]Gal(b1-4)GlcNAc
# How it was run: as §1
# [24] = molecular target: Fuc(a1-2)[GalNAc(b1-3)]Gal
# How it was run: as §1
# Fuc(a1-3)GlcNAc = molecular target: Fuc(a1-3)GlcNAc
# How it was run: as §1
# [25] = molecular target: Fuc(a1-3)[Gal(b1-4)]Glc6S
# How it was run: as §1
# [26] = molecular target: Fuc(a1-3)[Gal(b1-4)]GlcNAc
# How it was run: as §1
# [27] = molecular target: Fuc(a1-3)[Gal(b1-4)]GlcNAc(b1-2)Man
# How it was run: as §1
# [28] = molecular target: Fuc(a1-3)[Gal(b1-4)]GlcNAc(b1-2)Man(a1-3)[Fuc(a1-3)[Gal(b1-4)]GlcNAc(b1-2)Man(a1-6)]Man(b1-4)GlcNAc(b1-4)GlcNAc
# How it was run: as §1
# [29] = molecular target: Fuc(a1-3)[Gal(b1-4)]GlcNAc(b1-2)Man(a1-3)[Fuc(a1-3)[Gal(b1-4)]GlcNAc(b1-2)Man(a1-6)]Man(b1-4)GlcNAc(b1-4)[Fuc(a1-6)]GlcNAc
# How it was run: as §1
# [30] = molecular target: Fuc(a1-3)[Gal(b1-4)]GlcNAc(b1-3)Gal(b1-3)[Fuc(a1-4)]GlcNAc
# How it was run: as §1
# [31] = molecular target: Fuc(a1-3)[Gal(b1-4)]GlcNAc(b1-3)Gal(b1-4)[Fuc(a1-3)]GlcNAc
# How it was run: as §1
# [32] = molecular target: Fuc(a1-3)[Gal(b1-4)]GlcNAc(b1-3)Gal(b1-4)[Fuc(a1-3)]GlcNAc(b1-3)Gal(b1-4)[Fuc(a1-3)]GlcNAc
# How it was run: as §1
# [33] = molecular target: Fuc(a1-3)[Gal(b1-4)]GlcNAc(b1-3)GalNAc
# How it was run: as §1
# [34] = molecular target: Fuc(a1-3)[Gal(b1-4)]GlcNAc(b1-6)GalNAc
# How it was run: as §1
# [35] = molecular target: Fuc(a1-3)[Gal(b1-4)]GlcNAc(b1-6)[Gal(b1-3)GlcNAc(b1-3)]Gal(b1-4)Glc
# How it was run: as §1
# [36] = molecular target: Fuc(a1-3)[Gal(b1-4)]GlcNAc6S
# How it was run: as §1
# [37] = molecular target: Fuc(a1-3)[Gal3S(b1-4)]Glc
# How it was run: as §1
binder,measurement,setting,value
B1,glycan array binding signal (z-score),[1],-0.272
same,glycan array binding signal (z-score),[2],-0.263
same,glycan array binding signal (z-score),[3],0.967
same,glycan array binding signal (z-score),[4],1.27
same,glycan array binding signal (z-score),[5],0.766
same,glycan array binding signal (z-score),[6],1.51
same,glycan array binding signal (z-score),[7],1.03
same,glycan array binding signal (z-score),[8],0.267
same,glycan array binding signal (z-score),[9],0.004
same,glycan array binding signal (z-score),[10],1.28
same,glycan array binding signal (z-score),[11],0.364
same,glycan array binding signal (z-score),[12],0.734
same,glycan array binding signal (z-score),[13],1.18
same,glycan array binding signal (z-score),[14],0.493
same,glycan array binding signal (z-score),[15],0.773
same,glycan array binding signal (z-score),[16],0.335
same,glycan array binding signal (z-score),[17],0.555
same,glycan array binding signal (z-score),[18],0.542
same,glycan array binding signal (z-score),[19],1.24
same,glycan array binding signal (z-score),[20],1.62
same,glycan array binding signal (z-score),[21],0.414
same,glycan array binding signal (z-score),[22],-0.16
same,glycan array binding signal (z-score),[23],3.1
same,glycan array binding signal (z-score),[24],4.03
same,glycan array binding signal (z-score),Fuc(a1-3)GlcNAc,0.514
same,glycan array binding signal (z-score),[25],-0.272
same,glycan array binding signal (z-score),[26],-0.28
same,glycan array binding signal (z-score),[27],-0.274
same,glycan array binding signal (z-score),[28],-0.275
same,glycan array binding signal (z-score),[29],-0.267
same,glycan array binding signal (z-score),[30],-0.284
same,glycan array binding signal (z-score),[31],-0.286
same,glycan array binding signal (z-score),[32],-0.26
same,glycan array binding signal (z-score),[33],-0.259
same,glycan array binding signal (z-score),[34],0.599
same,glycan array binding signal (z-score),[35],-0.248
same,glycan array binding signal (z-score),[36],-0.148
same,glycan array binding signal (z-score),[37],-0.266
